Certain results were filed several times, with different values. They are shown here; other results are not. The source may hold further records. The values listed for one entry are repeated measurements (runs, samples, wells, individuals or studies). Marks such as (2×) say how often a value occurs here. Dates in brackets are months of testing.
Tested on: 855422-203-R-J1-PDC complex spheroid growth
Experiment: Anticancer human tumor 855422-203-R-J1-PDC patient-derived bladder carcinoma cell line growth inhibition [AhR]
Settings: for viability, T/C: stronger effect = lower value
Excerpt: Multicellular complex tumor spheroid response to aryl hydrocarbon receptor antagonists in combination with a variety of drugs and investigational agents in selected tumor cell lines
The current study was undertaken to assess response to aryl hydrocarbon receptor antagonists in combination with standard-of-care drugs and investigational agents in solid tumor complex spheroid models. Complex spheroids include a stromal component modeled by human endothelial cells (HUVEC) and fibroblasts modeled by human mesenchymal stem cells (MSCs). The concentration ranges selected for each drug and investigational agent were based upon clinically achievable concentrations if the clinical Cmax of the agent was known.
Compounds. The drugs and investigational agents: BAY 2416964 (NSC825713), GNF351 (NSC835774), CH-223191 (NSC835775), CPI-455 (NSC825282), aza-TdCyd (NSC777586), decitabine (NSC127716), belinostat (NSC758774), entinostat (NSC756642), pevonedistat (NSC761192), tazemetostat (NSC777109), talazoparib (NSC765396), olaparib (NSC753686), selinexor (NSC780203), nedisertib (M3814, NSC802822), bortezomib (NSC756655), venetoclax (NSC766270), doxorubicin (NSC123127), elimusertib (BAY189344, NSC800525), ceralasertib (AZD6738, NSC777638), TAK-243 (NSC785004), alisertib (NSC759677), etoposide (NSC141540), topotecan (NSC609699), eribulin (NSC707389), gemcitabine (NSC613327), carboplatin (NSC241240), cisplatin (NSC119875), and SN-38 (NSC673596) were obtained from the National Cancer Institute (NCI) Developmental Therapeutics Program Chemical Repository (32). The FDA-approved anticancer drug set is available from the Developmental Therapeutics Program at https://dtp.cancer.gov/organization/dscb/obtaining/available plates.htm. […] The stock solutions were prepared in dimethyl sulfoxide (DMSO, Sigma-Aldrich, St. Louis, MO, cat. D2650), except for the platinum compounds which were prepared in saline (Quality Biological, Gaithersburg, MD, cat. 114-055-101), at 800-fold the tested concentration and stored at -70 degrees C prior to their use. All drugs and investigational agents were tested over a range starting from a high concentration at or near the clinical Cmax and decreasing in half-log increments. If the clinical Cmax for an agent had not been determined, the highest concentration tested was 10 microM (Table 1).
Cell Culture. All cells were maintained in an incubator at 37 degrees C and 5% CO2 with 95% humidity. The PDC lines were cultured according to standard operating procedures established by the NCI PDMR (https://pdmr.cancer.gov). Briefly, all PDCs were thawed and cultured in Matrigel-coated flasks prepared with a working solution of 1X Ham's F-12 nutrient mix, without supplementation (Invitrogen, Waltham, MA, cat. 11765054), 100 U/mL penicillin-streptomycin (Invitrogen, cat. 15140122), and 2.5% Matrigel (Corning Inc., Corning, NY, cat. 354248) for the first three passages. All PDCs were cultured in complete DMEM/F-12 media containing advanced DMEM/F-12 (Invitrogen, cat. 12634028), 4.9% defined fetal bovine serum, heat inactivated (HyClone Laboratories Inc., Logan, UT, cat. SH30070.03HI), 389 ng/mL hydrocortisone (Sigma-Aldrich, cat. H4001), 9.7 ng/mL human EGF recombinant protein (Invitrogen, cat. PHG0313), 23.4 microg/mL adenine (Sigma-Aldrich, cat. A2786), 97.3 U/mL penicillin-streptomycin (Invitrogen, cat. 15140122), 1.9 mM L-glutamine (Invitrogen, cat. 25030081), and 9.7 microM Y-27632 dihydrochloride (Tocris Bioscience, Bristol, United Kingdom, cat. 1254). The PDCs were cultured in complete DMEM/F12 media without 10 microM Y-27632 dihydrochloride for at least two passages prior to the screen. The established cell lines NCI-H1341 and […] were cultured in DMEM/F-12, HEPES (Invitrogen, cat. 11330032), 5% defined fetal bovine serum (HyClone Laboratories Inc., cat. SH30070.03), ITS premix universal culture supplement [insulin (5 microg/mL), transferrin (5 microg/mL), and selenious acid (5 ng/mL)] […]
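Also: spheroids exposed to agents for seven days before readout.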
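For viability, T/C in this document: percent of DMSO vehicle control luminescence viability.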

Q: For `COc1cc(Nc2ncc3c(n2)-c2ccc(Cl)cc2C(c2c(F)cccc2OC)=NC3)ccc1C(=O)O`, which IC50 (compound alone) is on record?
A: The IC50 was 943 nM [2022-05] and 938 nM, > 10 µM [2022-06].

Q: For `CC(C)CC(NC(=O)C(Cc1ccccc1)NC(=O)c1cnccn1)B(O)O` (stereo unspecified), which viability, T/C (compound alone 0.003 µM) is on record?
A: The viability, T/C was 0.9% [2022-05] and 46.1%, 130% [2022-06].

Q: What does the source list for `Cc1cncc(-c2nc(NCCc3c[nH]c4ccccc34)c3ncn(C(C)C)c3n2)c1`?
A: viability, T/C (compound alone 0.316 µM): 90.7, 93.5, 79, 96.4, 81.8, 87.5, 93.3, 95.6, 93, 80.3, 92.2, 106, 96, 84.8, 93.9, 78.9, 82.7, 84.5, 91, 83.8%; viability, T/C (compound alone 3.16 µM): 80.3, 78.3, 83.3 (2×), 85.5, 73, 75.9, 83.7, 87.8, 80.4, 82.9, 82.1, 88.6, 71, 81.3, 70.9, 51.3, 70.4, 77.8, 74.5%; viability, T/C (compound alone 10 µM): 15.6, 9.41, 12.3, 13.6, 7.15, 12.6, 11.2, 15.8, 10.4, 17.4, 35.5, 36.9, 41.2, 26.7, 32.5, 18.7, 24.9, 19.5, 23.3, 24.1, 6%

Q: With `CC(CO)NC(=O)c1cc(-c2ccc(Cl)cc2)nn(-c2cnn(C)c2)c1=O` (stereo unspecified) as the molecule, how does the viability, T/C (compound alone 0.316 µM) read?
A: The viability, T/C was 101 (3×), 87.7, 90.5, 92.4, 107, 95.6, 109, 91.6, 99.2 (2×), 99.6, 92.8, 90.6, 111, 95, 95.1, 85.6, 91.3, 89%.

Source: PubChem BioAssay AID1919005 (Molecular Pharmacology Branch, DTP, NCI, 2023)
